# Source: paper PMC9911399, “Two distinct binding modes provide the RNA-binding protein RbFox with extraordinary sequence specificity”
# Positions count from the first letter of the chain named. The list shows a part of the results.
# B1: CCGAGGU (DNA:RNA)
# RNA: GGGAGACCGGAAUUCAGAUUGUCCCCGAGGUUUAAAUCCCGUCGUAGCCACCA
# DNA 1: CAATCTGAATTCCGGTCTCCC
# DNA 2: TGGTGGCTACGACGGGATT
# B2: UUAUUCU (DNA:RNA)
# RNA: B1 RNA with C25U, C26U, G27A, A28U, G29U, G30C
# DNA 1: CAATCTGAATTCCGGTCTCCC
# DNA 2: TGGTGGCTACGACGGGATT
# B3: UCGUUUA (DNA:RNA)
# RNA: B1 RNA with C25U, A28U, G29U, G30U, U31A
# DNA 1: CAATCTGAATTCCGGTCTCCC
# DNA 2: TGGTGGCTACGACGGGATT
# B4: CAAGUUA (DNA:RNA)
# RNA: B1 RNA with C26A, G27A, A28G, G29U, G30U, U31A
# DNA 1: CAATCTGAATTCCGGTCTCCC
# DNA 2: TGGTGGCTACGACGGGATT
# B5: GUAAGCA (DNA:RNA)
# RNA: B1 RNA with C25G, C26U, G27A, G30C, U31A
# DNA 1: CAATCTGAATTCCGGTCTCCC
# DNA 2: TGGTGGCTACGACGGGATT
# B6: CAAUGAC (DNA:RNA)
# RNA: B1 RNA with C26A, G27A, A28U, G30A, U31C
# DNA 1: CAATCTGAATTCCGGTCTCCC
# DNA 2: TGGTGGCTACGACGGGATT
# B7: CUGAUUU (DNA:RNA)
# RNA: B1 RNA with C26U, G29U, G30U
# DNA 1: CAATCTGAATTCCGGTCTCCC
# DNA 2: TGGTGGCTACGACGGGATT
# B8: CUCGCAA (DNA:RNA)
# RNA: B1 RNA with C26U, G27C, A28G, G29C, G30A, U31A
# DNA 1: CAATCTGAATTCCGGTCTCCC
# DNA 2: TGGTGGCTACGACGGGATT
# B9: AAGCCAU (DNA:RNA)
# RNA: B1 RNA with C25A, C26A, A28C, G29C, G30A
# DNA 1: CAATCTGAATTCCGGTCTCCC
# DNA 2: TGGTGGCTACGACGGGATT
# B10: AGUAGCG (DNA:RNA)
# RNA: B1 RNA with C25A, C26G, G27U, G30C, U31G
# DNA 1: CAATCTGAATTCCGGTCTCCC
# DNA 2: TGGTGGCTACGACGGGATT
# B11: AGCAUCA (DNA:RNA)
# RNA: B1 RNA with C25A, C26G, G27C, G29U, G30C, U31A
# DNA 1: CAATCTGAATTCCGGTCTCCC
# DNA 2: TGGTGGCTACGACGGGATT
# B12: UAAGUGG (DNA:RNA)
# RNA: B1 RNA with C25U, C26A, G27A, A28G, G29U, U31G
# DNA 1: CAATCTGAATTCCGGTCTCCC
# DNA 2: TGGTGGCTACGACGGGATT
# B13: AUCCGCC (DNA:RNA)
# RNA: B1 RNA with C25A, C26U, G27C, A28C, G30C, U31C
# DNA 1: CAATCTGAATTCCGGTCTCCC
# DNA 2: TGGTGGCTACGACGGGATT
# B14: UCGGCAG (DNA:RNA)
# RNA: B1 RNA with C25U, A28G, G29C, G30A, U31G
# DNA 1: CAATCTGAATTCCGGTCTCCC
# DNA 2: TGGTGGCTACGACGGGATT
# B15: UUUCCCG (DNA:RNA)
# RNA: GGGAGACCGGAAUUCAGAUUGUCCUUUCCCGUUAAAUCCCGUCGUAGCCACCA
# DNA 1: CAATCTGAATTCCGGTCTCCC
# DNA 2: TGGTGGCTACGACGGGATT
# B16: GAGCGUU (DNA:RNA)
# RNA: B1 RNA with C25G, C26A, A28C, G30U
# DNA 1: CAATCTGAATTCCGGTCTCCC
# DNA 2: TGGTGGCTACGACGGGATT
# B17: CCUGGAA (DNA:RNA)
# RNA: B1 RNA with G27U, A28G, G30A, U31A
# DNA 1: CAATCTGAATTCCGGTCTCCC
# DNA 2: TGGTGGCTACGACGGGATT
# B18: GGACGCA (DNA:RNA)
# RNA: B15 RNA with U25G, U26G, U27A, C29G, G31A
# DNA 1: CAATCTGAATTCCGGTCTCCC
# DNA 2: TGGTGGCTACGACGGGATT
# B19: GUUAUAG (DNA:RNA)
# RNA: B15 RNA with U25G, C28A, C29U, C30A
# DNA 1: CAATCTGAATTCCGGTCTCCC
# DNA 2: TGGTGGCTACGACGGGATT
# B20: UUUGAUA (DNA:RNA)
# RNA: B15 RNA with C28G, C29A, C30U, G31A
# DNA 1: CAATCTGAATTCCGGTCTCCC
# DNA 2: TGGTGGCTACGACGGGATT
# Biological target: T1, RBFOX1 RRM (Homo sapiens, UniProt Q9NWB1 109-208)
# T1 sequence: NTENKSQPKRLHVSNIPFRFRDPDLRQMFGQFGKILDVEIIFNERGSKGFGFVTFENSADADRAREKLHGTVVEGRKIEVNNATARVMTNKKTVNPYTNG
# Assay: EMSA; HiTS-Eq, 1 nM pool, 10 min; buffer printed only for the single-RNA assays: 10 mM Tris pH 7.5, 150 mM NaCl, 3.4 mM EDTA, 0.001% NP-40, 30 C
# Conditions: tags: His6 N-terminal (pET28a); label: 5' 32P
# How it was run: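 Relative association constants, normalised to the cognate motif, were derived by comparing read counts of each RNA species with those of the control reaction. The RNA sequenced was the free fraction, separated by 8% native PAGE after a 10 min equilibration in 50 µL of 1 nM 5′-radiolabelled RNA (7 randomized nucleotides) with increasing concentrations of purified wild-type or mutant RbFox RRM.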
row,Binder,binding signal
1,B1,0.0153 KA relative to UGCAUGU
2,B2,0.00479 KA relative to UGCAUGU
3,B3,0.00996 KA relative to UGCAUGU
4,B4,0.00194 KA relative to UGCAUGU
5,B5,0.0102 KA relative to UGCAUGU
6,B6,0.00581 KA relative to UGCAUGU
7,B7,0.012 KA relative to UGCAUGU
8,B8,0.00552 KA relative to UGCAUGU
9,B9,0.00193 KA relative to UGCAUGU
10,B10,0.0104 KA relative to UGCAUGU
11,B11,0.0109 KA relative to UGCAUGU
12,B12,0.00934 KA relative to UGCAUGU
13,B13,0.00344 KA relative to UGCAUGU
14,B14,0.0195 KA relative to UGCAUGU
15,B15,0.00667 KA relative to UGCAUGU
16,B16,0.0169 KA relative to UGCAUGU
17,B17,0.016 KA relative to UGCAUGU
18,B18,0.0198 KA relative to UGCAUGU
19,B19,0.0111 KA relative to UGCAUGU
20,B20,0.0145 KA relative to UGCAUGU
